The campaign covered roughly 150,000 compounds. About 540 (0.36%) showed an effect of 50% or more. The list shows a part of the results.
tested on: Plasmodium falciparum; assay: Primary screen in NF54 nanoGlo assay, in single point, at 2uM, 72h; a lower Z score goes with more inhibition; type: functional, Erythrocyte; settings: timepoint 72 hour

Point of comparison: CCc1nnc([C@H](C)Nc2ccc(OCc3ccco3)c(Cl)c2)o1, “% Inhibition” value -12%. Against it:
- Cn1nc(C2CC2)cc1CNC(=O)[C@@H]1COCC[C@@H]1c1ccccc1 — higher, 8%
- Cc1cc(NC(=O)NCC2C(C)OC(C)(C)N2C(=O)OC(C)(C)C)no1 (stereo unspecified) — higher, 1%
- Cc1c(Cl)cccc1NC(=O)CCC(=O)N1CCCN(c2nc3cccnc3s2)CC1 — higher, -3%
- COC(=O)c1ccc(C(=O)N2CCCC2C2CC(C)CCC2O)cc1 (stereo unspecified) — higher, 4%
- COc1cc(C(=O)N2CCCN(C3CCOCC3)CC2)ccc1F — higher, 3%
- CN(Cc1nc2ccccc2s1)c1ccn(C)n1 — higher, -6%
- C[C@H](NCC(=O)NCc1ccc(F)cc1)C1CCOCC1 — higher, -6%
- Cc1ccc(C(=O)NCCC2(O)CCCC2)cn1 — lower, -27%
- Cc1ccc(-c2noc(CN3N=NC4C(=O)N(c5ccc6c(c5)CCC6)C(=O)C43)n2)cc1 (stereo unspecified) — higher, 0%
- CS(=O)(=O)N1CC[C@H](CNC(=O)NC(C2CCC2)C2CCC2)C1 — higher, 1%
- CN(C)S(=O)(=O)c1ccc(N2CCC(c3ccnn3C)CC2)c(S(N)(=O)=O)c1 — higher, -4%
- CCCCN1CCN(c2nc(-c3ccncc3)nc3c2c(C)nn3C)CC1=O — higher, -11%
- C=C(C)COc1ccc(C(=O)NC[C@H](C)n2cncn2)cc1 — higher, -8%
- CCN(Cc1nnc(-c2ccccc2)o1)S(=O)(=O)c1cnn(C(F)F)c1 — higher, 5%
- C[C@H]1CCCN(c2ccc(Cl)cc2NC(=O)CCc2ccnn2C)C1 — higher, -8%
- COc1ccc(-c2nc(N)c(C#N)c(-c3c[nH]c(C)n3)c2C)cc1 — higher, 9%
- CCc1noc(CCNC(=O)CCc2csc(N)n2)n1 — higher, 0%
- Cn1nncc1NC(=O)NCCc1cccc2c1OCCO2 — higher, -6%
- Cn1ccc(NC(=O)NC[C@H]2CCCCN2C2CC2)n1 — higher, -8%
- CC1(C)CCc2nnc(CNC(=O)c3ccco3)n2C1 — higher, 4%
- C=CCn1cc(CN[C@H](C(N)=O)C(C)C)c(C)n1 — higher, -1%
- CC(=O)c1cccc(NC(=O)CC2CC3CCC2C3)c1 (stereo unspecified) — the same, -12%
- Cn1cc(CN(CCn2cc(Cl)cn2)C2CC2)cn1 — higher, -3%
- Cn1nnc2cc(-c3noc(-c4cccc(NC(=O)c5ccco5)c4)n3)ccc21 — higher, 26%
- O=C(Cc1ccccc1F)N1CC2(C[C@H](N3CCCC3)CO2)C1 — higher, -7%
- Cc1nn(CN(CCC#N)Cc2ccccn2)c(C)c1Br — higher, 4%
- COC(=O)c1cc2n(n1)C[C@@](C)(C(=O)NC1CCC(C)CC1)N(Cc1ccccc1C)C2=O (stereo partly specified) — higher, 8%
- Fc1cc(Cl)cc(-n2cc([C@H]3CCOC3)nn2)c1 — higher, -6%
- Fc1cnc(OC2Cc3ccccc3C2)nc1 — higher, 60%
- Cc1n[nH]c([C@@H]2CN(C(=O)c3cscn3)CCCN2Cc2ccccc2)n1 — higher, -9%
- CC(=O)c1ccc(-c2ccc(C(=O)N(C)c3cccc(CO)c3)o2)cc1 — lower, -17%
- Cc1n[nH]c(C(=O)NCCN2CCCC2=O)c1Cl — lower, -13%
- CC(=O)Nc1ccc(S(=O)(=O)N[C@H]2C[C@@H](c3nc(C)no3)N(C)C2)cc1 — higher, 13%
- Cc1cccc(C)c1NC(=O)C1=NCCCN1 — higher, 5%
- CC[C@H]1COCCN1C(=O)c1ccn2nnnc2c1 — lower, -14%
- Cc1nc(C(C)C)ncc1C(=O)N1CCNC[C@H]1C(=O)N1CCOCC1 — higher, 2%
- CN1CCC[C@@H]1CNC(=O)Nc1ccccc1C(F)(F)F — higher, 0%
- CNC(=O)N1CCC[C@H](Oc2nc(C3CC3)nc3c2CCOCC3)C1 — lower, -13%
- Cc1ncc(CC(=O)N2CCC[C@H](c3nc4c(C)cccc4[nH]3)C2)c(=O)[nH]1 — higher, -6%
- COc1cccc(NS(=O)(=O)c2cc(-c3[nH]ncc3C(=O)N(C)C)oc2C)c1 — higher, 5%
- CCOC(=O)c1cnc2nccc(C)c2c1O — lower, -34%
- O=C(Nc1cccc(COC2CCCCC2)c1)[C@H]1CCc2nccn2C1 — higher, -1%

Point of comparison: COc1cccc(NS(=O)(=O)c2cc(-c3[nH]ncc3C(=O)N(C)C)oc2C)c1, Z score -0.56. Against it:
- Cn1nc(C2CC2)cc1CNC(=O)[C@@H]1COCC[C@@H]1c1ccccc1 — lower, -1.08
- Cc1cc(NC(=O)NCC2C(C)OC(C)(C)N2C(=O)OC(C)(C)C)no1 (stereo unspecified) — higher, -0.1
- Cc1c(Cl)cccc1NC(=O)CCC(=O)N1CCCN(c2nc3cccnc3s2)CC1 — higher, 0.26
- COC(=O)c1ccc(C(=O)N2CCCC2C2CC(C)CCC2O)cc1 (stereo unspecified) — higher, -0.53
- COc1cc(C(=O)N2CCCN(C3CCOCC3)CC2)ccc1F — higher, -0.25
- CN(Cc1nc2ccccc2s1)c1ccn(C)n1 — higher, 1.29
- C[C@H](NCC(=O)NCc1ccc(F)cc1)C1CCOCC1 — higher, 0.79
- Cc1ccc(C(=O)NCCC2(O)CCCC2)cn1 — higher, 2.38
- Cc1ccc(-c2noc(CN3N=NC4C(=O)N(c5ccc6c(c5)CCC6)C(=O)C43)n2)cc1 (stereo unspecified) — higher, 0.01
- CS(=O)(=O)N1CC[C@H](CNC(=O)NC(C2CCC2)C2CCC2)C1 — higher, -0.21
- CN(C)S(=O)(=O)c1ccc(N2CCC(c3ccnn3C)CC2)c(S(N)(=O)=O)c1 — higher, 0.57
- CCCCN1CCN(c2nc(-c3ccncc3)nc3c2c(C)nn3C)CC1=O — higher, 2.22
- C=C(C)COc1ccc(C(=O)NC[C@H](C)n2cncn2)cc1 — higher, 1.02
- CCN(Cc1nnc(-c2ccccc2)o1)S(=O)(=O)c1cnn(C(F)F)c1 — lower, -0.59
- C[C@H]1CCCN(c2ccc(Cl)cc2NC(=O)CCc2ccnn2C)C1 — higher, 1.55
- COc1ccc(-c2nc(N)c(C#N)c(-c3c[nH]c(C)n3)c2C)cc1 — lower, -1.32
- CCc1nnc([C@H](C)Nc2ccc(OCc3ccco3)c(Cl)c2)o1 — higher, 1.24
- CCc1noc(CCNC(=O)CCc2csc(N)n2)n1 — higher, 0.03
- Cn1nncc1NC(=O)NCCc1cccc2c1OCCO2 — higher, 0.9
- Cn1ccc(NC(=O)NC[C@H]2CCCCN2C2CC2)n1 — higher, 1.42
- CC1(C)CCc2nnc(CNC(=O)c3ccco3)n2C1 — lower, -0.72
- C=CCn1cc(CN[C@H](C(N)=O)C(C)C)c(C)n1 — higher, 0.17
- CC(=O)c1cccc(NC(=O)CC2CC3CCC2C3)c1 (stereo unspecified) — higher, 1.65
- Cn1cc(CN(CCn2cc(Cl)cn2)C2CC2)cn1 — higher, 0.59
- Cn1nnc2cc(-c3noc(-c4cccc(NC(=O)c5ccco5)c4)n3)ccc21 — lower, -2.39
- O=C(Cc1ccccc1F)N1CC2(C[C@H](N3CCCC3)CO2)C1 — higher, 0.84
- Cc1nn(CN(CCC#N)Cc2ccccn2)c(C)c1Br — lower, -0.58
- COC(=O)c1cc2n(n1)C[C@@](C)(C(=O)NC1CCC(C)CC1)N(Cc1ccccc1C)C2=O (stereo partly specified) — lower, -0.92
- Fc1cc(Cl)cc(-n2cc([C@H]3CCOC3)nn2)c1 — higher, 0.59
- Fc1cnc(OC2Cc3ccccc3C2)nc1 — lower, -5.26
- Cc1n[nH]c([C@@H]2CN(C(=O)c3cscn3)CCCN2Cc2ccccc2)n1 — higher, 1.67
- CC(=O)c1ccc(-c2ccc(C(=O)N(C)c3cccc(CO)c3)o2)cc1 — higher, 2.29
- Cc1n[nH]c(C(=O)NCCN2CCCC2=O)c1Cl — higher, 1.63
- CC(=O)Nc1ccc(S(=O)(=O)N[C@H]2C[C@@H](c3nc(C)no3)N(C)C2)cc1 — lower, -1.47
- Cc1cccc(C)c1NC(=O)C1=NCCCN1 — higher, -0.53
- CC[C@H]1COCCN1C(=O)c1ccn2nnnc2c1 — higher, 1.81
- Cc1nc(C(C)C)ncc1C(=O)N1CCNC[C@H]1C(=O)N1CCOCC1 — higher, -0.17
- CN1CCC[C@@H]1CNC(=O)Nc1ccccc1C(F)(F)F — higher, 0.05
- CNC(=O)N1CCC[C@H](Oc2nc(C3CC3)nc3c2CCOCC3)C1 — higher, 1.28
- Cc1ncc(CC(=O)N2CCC[C@H](c3nc4c(C)cccc4[nH]3)C2)c(=O)[nH]1 — higher, 0.82
- CCOC(=O)c1cnc2nccc(C)c2c1O — higher, 3.99
- O=C(Nc1cccc(COC2CCCCC2)c1)[C@H]1CCc2nccn2C1 — higher, 0.11
